Results on 1 compound are retold here after PubChem BioAssay AID686979 (National Center for Advancing Translational Sciences (NCATS), 2013).

Out of some 420,000 compounds screened, about 50,000 (12%) were called active. Roughly 26% stayed inconclusive and do not appear here. Calls come from the whole dose curve; as a rule, active = well fitted inhibition curve with a large enough effect; inconclusive = small, poorly fitted or top-dose-only effect; inactive = flat fitted curve, though single readings scatter. Where a structure was tested more than once in an assay, its records may differ in their call. For part of its entries the source gives two or more results. They are shown here; other results are not. There may be further records. The values listed for one entry are repeated measurements in other runs, samples, wells, individuals or studies.
% is set by controls: 0 for no effect and ±100 for the full control effect; potency is the fitted concentration of half-maximal effect.

A short description of this test: qHTS for Inhibitors of human tyrosyl-DNA phosphodiesterase 1 (TDP1): qHTS in cells in presence of CPT. Note: nearly all actives have a fitted effect of over 55% in size. As to conditions: chicken DT40 Tdp1-/-;hTDP1 cells + 20 nM CPT, ATP luminescence, 48 h; series mostly up to 46.2 µM. In general terms: Quantitative high-throughput screening tests each substance at several concentrations.
Regarding `COc1c(C)c2c(c(O)c1C/C=C(\C)CCC(=O)O)C(=O)OC2`, the Potency entry was “active: 32.6, 580, 299, 114 nM and inactive [separate samples]”.
